Reference: PMC12040169 (PLOS Biology, 2025)
This is one part of the list.

Each compound was assayed on T1, C. trachomatis L2/434/Bu expressing GFP (CTL2-GFP). Conditions: total inclusion area; 28.5 h, 10 µM; inhibitor.
T1 construct: L2/434/Bu GFP intracellular growth in HeLa cells
Parameters: species or system HeLa; C. trachomatis total inclusion area by high-content imaging, normalised to DMSO
Summary of the method: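 Host cell viability was gauged from Hoechst-stained nuclei counts, while chlamydial growth was taken from total inclusion area and inclusion number per well. Cells were fixed and imaged by high-content microscopy once bulk GFP and resorufin fluorescence had been measured.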

Row | SMILES | % of control remaining
1 | CN1CC(C(=O)NCC(c2ccccc2)N2CCCCCC2)CC1=O (centres unmarked) [CBK282008] | 77.8425
2 | Cc1nc2cc(C(=O)O)ccc2n1CCO [CBK260949] | 105.249
3 | CC(C)(C)c1[nH]c2ncccc2c1CN1CCSCC1 [CBK285340] | 113.516
4 | COc1ccc2cc(/C=C(\C#N)c3nc(-c4cc5ccccc5oc4=O)cs3)c(Cl)nc2c1 [CBK261623] | 95.8533
5 | O=C(c1c(F)cccc1F)N1C2CCC1c1snnc1C2 (centres unmarked) [CBK284990] | 101.728
6 | O=C(NCCc1c[nH]c2ccc(F)cc12)Nc1ccccc1 [CBK269964] | 87.6357
7 | O=S(=O)(c1ccc(I)cc1)n1ccc2c(N3CCNCC3)cncc21 [CBK081326C] | 82.712
8 | CCOC(=O)N1CCC(NS(=O)(=O)Cc2ccccc2)CC1 [CBK045457] | 104.415
9 | Cn1c(=O)n(C)c2cc(CNCc3ccccn3)ccc21 [CBK288118] | 80.5106
10 | COc1ccc(CC(=O)N2CC[C@H]3NC(=O)N(c4ccccc4)C(=O)[C@H]32)cc1 [CBK289278] | 126.919
11 | O=C(C(Cc1ccccc1)N1C(=O)C2CCCCC2C1=O)N1CCN(Cc2ccc3c(c2)OCO3)CC1 (centres unmarked) [CBK264648] | 111.395
12 | N#CC1(NC(=O)CN2CCOC(Cn3cccn3)C2)CCCC1 (centres unmarked) [CBK304911] | 112.162
13 | FC(F)(F)c1cc(/C=C/c2cccs2)n[nH]1 [CBK020924] | 77.2593
14 | CC(C)[C@@H](CO)Nc1nccnc1-c1cccs1 [CBK089024] | 105.371
15 | CC(=O)NC(CSc1cc(C)nc2ccccc12)C(=O)O (centres unmarked) [CBK286755] | 50.3263
16 | Clc1ccc(CN2CCN(c3nccnc3OCCN3CCOCC3)CC2)cc1Cl [CBK082884T] | 87.1326
17 | COc1n[nH]c(CO)c1Cc1c(Cl)cccc1Cl [CBK092283T] | 100.908
18 | CSc1nnc(N(C)S(=O)(=O)c2ccc(C)cc2)s1 [CBK155272] | 91.0426
19 | Fc1ccc(N2CCN(Cc3cccc(OCc4ccccc4)c3)CC2)cc1 [CBK261916] | 90.9959
20 | N#Cc1ccccc1N1CCN(c2cncc(-c3ccc(CO)cc3)n2)CC1 [CBK037383] | 64.7371
21 | CC1CCCC(C)N1CC(O)COCc1ccc2c(c1)OCO2 (centres unmarked) [CBK263134C] | 95.6633

Row | SMILES | % of control remaining
22 | COc1ccc(NC(=O)c2sc(Cl)nc2C)cc1 [CBK057902] | 68.3516
23 | O=C(CCN1CCN(Cc2ccccc2)CC1)Nc1ccc(F)cc1 [CBK264261] | 63.3042
24 | CO[C@@H](C(=O)Nc1cnc(-c2cccc(C)c2)c(-c2ccco2)n1)c1ccccc1 [CBK037613] | 88.4037
25 | CC(C)C(CNCc1ccsc1)c1ccnn1C (centres unmarked) [CBK304821] | 98.7211
26 | OC1(C2CNc3ccccc3C2)CCNCC1 (centres unmarked) [CBK283847] | 69.9592
27 | CCOC(=O)C1CCN(C(=O)Cn2cnc3ccc(Br)cc3c2=O)CC1 [CBK306070] | 76.011
28 | CCn1cc(CN2CCCN(C(=O)c3cccn(C)c3=O)CC2)cn1 [CBK305375] | 44.1196
29 | COc1ccc([N+](=O)[O-])cc1NC(=O)c1cc(Cl)c(OC)c(Cl)c1 [CBK268594] | 98.4774
30 | COc1ccc(Cc2nnc(Nc3ccc(OC)cc3)[nH]c2=O)cc1 [CBK287385] | 91.4917
31 | CNCCOc1ccccc1O [CBK023215C] | 92.6903
32 | CN(CC1(C)COC1)C(=O)CCc1nc2ccccc2[nH]1 [CBK281719] | 80.6564
33 | O=C(O)CC(C(=O)O)N1C(=O)/C(=C\C(Cl)=C/c2ccc([N+](=O)[O-])cc2)SC1=S (centres unmarked) [CBK261013] | 105.732
34 | O=C(CN1CCCC(c2cccc(Cc3ccc(F)cc3)n2)C1)Nc1nccs1 (centres unmarked) [CBK286503] | 76.5049
35 | OCCN1CC2(CCN(CCC(c3ccccc3)c3ccccc3)CC2)c2ccccc21 [CBK126765] | 88.7197
36 | CCOC(=O)c1cnc2ccc(Cl)cc2c1N1CCOCC1 [CBK307627] | 95.7036
37 | O=C(O)Cc1ccc(NS(=O)(=O)c2ccc(F)cc2)cc1 [CBK269981] | 86.3579
38 | O=C(O)COc1ccccc1/C=C/c1cc(C(F)(F)F)[nH]c(=O)n1 [CBK287017] | 83.5771
39 | Clc1cc(NCCc2c[nH]c3ccccc23)n2nccc2n1 [CBK037218] | 63.6347
40 | Cc1cnc(CNC(=O)N2CCN(c3ccc(F)cc3)CC2)cn1 [CBK156392] | 108.255
41 | O=C(NCC1CCCO1)C1CCCN(C(=O)c2cc(-c3ccccn3)[nH]n2)C1 (centres unmarked) [CBK210893] | 102.329
